In patent US20230055143A1 (AstraZeneca / MedImmune, published 2023):

B1: GPC3-1 CAR (chimeric antigen receptor with the GPC3-1 scFv), expressed on cells (other)
chain: [letters of about 100 residues left out]GKRYFDYWGQGTMVTVSSGGGGSGGGGSGGGGSSYELTQPPSASGTPGQRVTISCSGGSSNIGSNTVNWFRQLPGTAPKLLVYFNNQRPSGVPDRFSGSKSGTSASLAIGGLQSDDEADYYCVAWDDSLNAPVFGGGTKVTVL
notes: Chimeric antigen receptor; also called GPC3-1 CAR constructs; not shown: IgG4P hinge, CD28 transmembrane domain and intracellular domain
B2: GPC3-2 CAR (chimeric antigen receptor with the GPC3-2 scFv), expressed on cells (other)
chain: [letters of about 100 residues left out]GKRYFDYWGQGTMVTVSSGGGGSGGGGSGGGGSQSVLTQPPSASGTPGQRVTISCSGGSSDIGSNTVNWYQQLPGTAPKLLIYYNNQRPSGVPDRFSGSKSGTSASLAISGLQSEDEADYYCATWDDRMYSPVFGGGTKLTVL
notes: Chimeric antigen receptor; also called GPC3-2 CAR constructs; not shown: IgG4P hinge, CD28 transmembrane domain and intracellular domain
B3: GPC3-1 scFv-Fc fusion protein (Fc fusion)
chain: [letters of about 100 residues left out]GKRYFDYWGQGTMVTVSSGGGGSGGGGSGGGGSSYELTQPPSASGTPGQRVTISCSGGSSNIGSNTVNWFRQLPGTAPKLLVYFNNQRPSGVPDRFSGSKSGTSASLAIGGLQSDDEADYYCVAWDDSLNAPVFGGGTKVTVL
notes: Purified scFv-Fc, covalently amine-coupled to the SPR sensor chip; also called GPC-1; anti-GPC3 scFv-Fc; not shown: Fc part
B4: GPC3-2 scFv-Fc fusion protein (Fc fusion)
chain: [letters of about 100 residues left out]GKRYFDYWGQGTMVTVSSGGGGSGGGGSGGGGSQSVLTQPPSASGTPGQRVTISCSGGSSDIGSNTVNWYQQLPGTAPKLLIYYNNQRPSGVPDRFSGSKSGTSASLAISGLQSEDEADYYCATWDDRMYSPVFGGGTKLTVL
notes: Purified scFv-Fc, covalently amine-coupled to the SPR sensor chip; also called anti-GPC3 scFv-Fc; not shown: Fc part

Tests used:
[1] = biological target: T1, soluble recombinant His-tagged GPC3 protein (R&D Systems) (human, UniProt P51654 25-559, limits assumed); assay: flow cytometry: Jurkat cells expressing the CAR stained with soluble His-tagged GPC3 (x axis 0.001 to 10 µg/mL), anti-His secondary antibody, mean fluorescence intensity; one-site fit, apparent KD
T1 construct: also called Soluble HuGPC3; soluble GPC3 protein; not shown: His tag
T1 sequence (P51654 25-559 limits assumed): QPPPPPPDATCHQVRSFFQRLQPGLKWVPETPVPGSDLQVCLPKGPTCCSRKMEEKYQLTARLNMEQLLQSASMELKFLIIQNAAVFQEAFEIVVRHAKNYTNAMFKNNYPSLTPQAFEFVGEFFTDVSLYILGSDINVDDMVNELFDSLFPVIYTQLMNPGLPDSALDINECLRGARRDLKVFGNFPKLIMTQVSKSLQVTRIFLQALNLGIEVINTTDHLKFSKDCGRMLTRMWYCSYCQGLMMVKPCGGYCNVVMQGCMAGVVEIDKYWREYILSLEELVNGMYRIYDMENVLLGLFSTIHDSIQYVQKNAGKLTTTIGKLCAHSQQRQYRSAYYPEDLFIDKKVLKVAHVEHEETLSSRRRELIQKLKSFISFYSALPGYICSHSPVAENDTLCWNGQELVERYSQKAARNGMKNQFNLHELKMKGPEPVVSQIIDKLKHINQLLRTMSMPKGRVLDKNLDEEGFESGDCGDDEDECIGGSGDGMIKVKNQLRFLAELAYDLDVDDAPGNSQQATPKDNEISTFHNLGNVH
Method: Apparent binding affinity was determined by cell surface binding of soluble recombinant GPC3 protein to the GPC3-1 and GPC3-2 CARs expressed on the surface of Jurkat cells. CAR constructs were expressed on the surface of Jurkat cells using lentiviral vectors. Cells were stained with varying concentrations of recombinant His-tagged GPC3 protein (R&D systems). Bound GPC3 was visualized by staining with a fluorescently conjugated anti-His-tag secondary antibody, and cells were analyzed by flow cytometry. Binding curves were fit to a simple one site binding model to determine the apparent KD.

[2] = biological target: T1, soluble recombinant His-tagged GPC3 …; assay: flow cytometry: His-tagged soluble GPC3 titrated on Jurkat cells expressing the CAR, anti-His secondary, one-site fit (apparent KD)
[3] = biological target: T1, soluble recombinant His-tagged GPC3 …; assay: SPR (BIAcore): scFv-Fc amine-coupled to the chip, soluble GPC3 flowed at 14, 28, 57, 114 and 228 nM; 1:1 Langmuir fit, mean value
Method: (§1) An alternative measure of binding affinity was determined using a BIAcore surface plasmon resonance system and GPC3-1 and GPC3-2 scFv-Fc fusion proteins. Purified scFv-Fc fusion molecules of GPC3-1 and GPC3-2 were covalently coupled to an amine reactive SPR sensor chip (CMS, GE Healthcare). For GPC-1, soluble GPC3 protein (R&D Systems) was flowed over the chip surface at concentrations of 14, 28, 57, 114, and 228 nM at a rate of 30 μL/min, and the interaction was monitored. For GPC3-2, concentrations of 4, 7, 14, 28, and 57 nM were flowed at the same flow rate. Data were fit using BIAevaluation software (GE Healthcare), and a simple 1:1 Langmuir binding model, with Rₘₐₓ fit globally and kₐ, kd, and KD fit locally.

[4] = biological target: T1, soluble recombinant His-tagged GPC3 …; assay: SPR: scFv-Fc amine-coupled to the chip, soluble GPC3 in flow, 1:1 Langmuir fit
[5] = biological target: T1, soluble recombinant His-tagged GPC3 …; assay: SPR (BIAcore): scFv-Fc amine-coupled to the chip, soluble GPC3 flowed at 4, 7, 14, 28 and 57 nM; 1:1 Langmuir fit, mean value
Method: as §1

| Binder | Kd [1] | Kd [2] | Kd [3] | Kd [4] | Kd [5] |
| --- | --- | --- | --- | --- | --- |
| B1 | 15.2 nM | ~15 nM |  |  |  |
| B2 | 4.6 nM | ~5 nM |  |  |  |
| B3 |  |  | 73.1 nM | 73 nM |  |
| B4 |  |  |  | 11 nM | 11.1 nM |
